Reference: PubChem BioAssay AID624296 (National Center for Advancing Translational Sciences (NCATS), 2012)
Where “and” joins values, the source holds several entries; their conditions need not be identical. Identical values can stand only once. In all, about 350,000 compounds went through this assay and about 9,900 (2.8%) were called active. This list was built around the results that the source calls inconclusive (neither active nor inactive); the mix of calls is not that of the screen. The call rests on the fitted dose curve; in most records, active means well fitted activation curve with a large enough effect; inconclusive means small, poorly fitted or top-dose-only effect; inactive means no such curve, though single readings can be large or run the other way. Potencies beside an inconclusive call are fits to weak or partial responses and may not hold up.

Assay: A quantitative high throughput screen for small molecules that induce DNA re-replication in MCF 10a normal breast cells. Further: nearly all actives have a fitted effect of over 50% in size. On activity, positive = re-replication: % of control where 0% means no effect.
Settings: MCF 10A DNA re-replication, Hoechst nuclear intensity, 48 h; activity, positive = re-replication: at 46.1 µM (top of the series)
Potency means the concentration at half of the fitted maximal effect; tags describe the fitted curve by direction and shape.

SMILES | Potency | activity, positive = re-replication
COc1cc(/C=N\NC(=O)c2sc(N)nc2C)cc(OC)c1OC | active: 20.6 µM | 
CCn1c(C)nc2cc(C(=O)N/N=C(\C)c3ccccc3O)ccc21 |  | inactive: 2.62%
N=C1C(c2nc3ccccc3s2)=C(O)CN1NC(=O)c1ccc([N+](=O)[O-])cc1 | active: 3.66 µM | 
Oc1ccc(-c2nccc(-c3ccc(Cl)cc3Cl)n2)cc1 | inconclusive: 29.1 µM [activator, single point] | 
Cc1ccc(CNC(=O)Cc2ccc(-n3cccc3)cc2)cc1 | active: 5.8 µM | 
CN(C(=O)C(Cl)Cl)C1CC2C=CC1C2 (stereo not drawn) |  | inactive: -2.25%
C=CC[C@@H](CC(=O)N[C@@H](CO)Cc1ccccc1)C(=O)N[C@H](COC(=O)[C@@H](CC=C)Cc1ccc(F)cc1)C(C)(C)C |  | inactive: 20.4%
N#Cc1ccc(CSc2nnc(Cc3cccs3)n2Cc2ccco2)cc1 |  | inactive: -13.2%
C=CCOc1ccc(Br)cc1/C=C1\NC(=S)N(C(C)=O)C1=O | inconclusive: 29.1 µM [activator, single point] | 
O=S(=O)(c1ccc(F)cc1)N1CCC(c2nc3ccccc3[nH]2)CC1 |  | inactive: -1.19%
CC1CCCN(C(=O)Cn2c(=O)oc3cc(S(=O)(=O)N4CCCCC4C)ccc32)C1 (stereo not drawn) | inconclusive: 2.59 µM [activator, full curve, poor fit] | 
Cc1ccc(SCCNC(=S)Nc2ccc(C)cc2C)cc1 | inconclusive: 25.9 µM [activator, single point] | 
CCOC(=O)C1CCN(C(=O)Cn2cccc2C(=O)c2ccccc2)CC1 |  | inactive: 15.5%
O=c1c2ccccc2nc(/C=C/c2cccnc2)n1CCc1ccccc1 | active: 29.1 µM | 
COc1ccc(NC(=O)C2CCN(C(=O)Nc3ccc(C)cc3)CC2)cc1OC |  | inactive: -4.74%
CC1(C)CC2(CC(c3cccs3)c3cc(Cl)c(O)cc3O2)NC(=S)N1 (stereo not drawn) | inconclusive: 20.6 µM [activator, partial curve, poor fit] | 
COc1ccccc1NC(=O)Cn1cc(C(=O)c2ccco2)c2ccccc21 |  | inactive: 27.7%
Cc1ccc(C(=O)N2c3ccc(F)cc3CCC2C)o1 (stereo not drawn) | inconclusive: 4.61 µM [activator, partial curve, poor fit] | 
O=C(CSc1nc2ccccc2[nH]1)N/N=C/C=C/c1ccccc1[N+](=O)[O-] | inconclusive: 32.6 µM [activator, partial curve, poor fit] | 
Cc1ccccc1OCC(=O)Nc1sc2c(c1C#N)CC(C)(C)NC2(C)C | active: 20.6 µM | 
CCCNC(=O)c1ccccc1NC(=O)COc1ccc(OC)cc1 |  | inactive: 0.0612%
O=C(Oc1ccc([N+](=O)[O-])cc1)c1cccnc1 | inconclusive: 2.59 µM [activator, single point] | 
Cc1cn(CC(=O)c2ccccc2)c2ccccc12 | inconclusive: 32.6 µM [activator, partial curve, poor fit] | 
CCOC(=O)/C(=N/Nc1ccccc1OC)N1CCCc2ccccc21 | inconclusive: 32.6 µM [activator, partial curve, poor fit] | 
CCCCn1c(N)c(N(CC)C(=O)C2COc3ccccc3O2)c(=O)[nH]c1=O (stereo not drawn) |  | inactive: 1.2%

SMILES | Potency | activity, positive = re-replication
COc1ccc(/C=N/NC(=O)c2ccc(C)nc2)cc1O | inconclusive: 32.6 µM [activator, partial curve, poor fit] | 
CCc1ccc[n+](-c2nc([O-])sc2C=O)c1 | inconclusive: 0.164 µM [activator, full curve, poor fit] | 
Cc1cc(C(=O)NNC(=O)c2ccc(Cl)cc2)no1 | inconclusive: 10.3 µM [activator, single point] | 
Cc1c(C(=O)NN2CCOCC2)oc2c1ccc1ccccc12 |  | inactive: -27.5%
O=C(COc1ccccc1)N1c2ccccc2Sc2ccccc21 | inconclusive: 16.4 µM [activator, partial curve, poor fit] | 
CCS(=O)(=O)Nc1ccc(-c2ccc(NS(=O)(=O)CC)c(OC)c2)cc1OC |  | inactive: 24.5%
Cc1onc(-c2c(F)cccc2Cl)c1C(=O)OCC(=O)NC(=O)NCC(C)C | inconclusive: 29.1 µM [activator, single point] | 
Cc1ccccc1OCC(O)CNC1CCCC1 (stereo not drawn) | inconclusive: 29.1 µM [activator, partial curve, poor fit] | 
COc1ccccc1C(=O)N1CCN(Cc2ccc3c(c2)OCO3)CC1 |  | inactive: 8.4%
Cc1ccc(N2C(=O)C3C4C=CC(CNC(=S)Nc5ccc(Cl)cc5)(O4)C3C2=O)cc1 (stereo not drawn) | inconclusive: 29.1 µM [activator, partial curve, poor fit] | 
CCOC(=O)C1(Cc2cccc(OC)c2)CCN(Cc2ccccc2)CC1 |  | inactive: 15.2%
CCCCc1ccc(NC(=O)CC(C)C)cc1 | inconclusive: 7.31 µM [activator, partial curve, poor fit] | 
CSc1nsc(/C=C/Nc2ccc(Cl)cc2)c1C#N | inconclusive: 15.8 µM [activator, single point] | 
CC(=O)N1CCN(C(=O)c2cc(-c3ccc(Cl)s3)nc3ccccc23)CC1 | inconclusive: 8.2 µM [activator, single point] | 
O=C(Cn1ncc(Cl)c(Cl)c1=O)NC1CCCCC1 | active: 1.3 µM | 
Cc1ccccc1CC(=O)NC1CCCCCC1 |  | inactive: 8.03%
CCOc1cc(NC(=S)NCC2CCCO2)c(OCC)cc1NC(=O)c1ccccc1F (stereo not drawn) | inconclusive: 29.1 µM [activator, single point] | 
S=C(Nc1ccccc1)N1CCn2cccc2C1c1cccnc1 (stereo not drawn) |  | inactive: -4.87%
Cc1cccc(Nc2nc(-c3ccccc3)c(C(=O)Nc3cccnc3)s2)c1 | active: 23.1 µM | 
CCOc1ccc(/C=N/NC(=S)NC2CC3C=CC2C3)cc1 (stereo not drawn) |  | inactive: 4.06%
O=C(Cc1sc(-c2ccccc2)nc1-c1ccccc1)Nc1ccccc1 | inconclusive: 9.2 µM [activator, partial curve, poor fit] | 
NS(=O)(=O)c1cc(C(=O)OCC(=O)Nc2ccc3[nH]c(=O)[nH]c3c2)ccc1Cl |  | inactive: -5.05%
O=C(Nc1nc(-c2cc(Cl)sc2Cl)cs1)c1ccccc1 | active: 20.6 µM | 
COc1cccc(NC(=O)COC(=O)c2c3c(nc4ccccc24)CCC(C)C3)c1 (stereo not drawn) | active: 10.3 µM | 
C=CCn1c(SCC(=O)Nc2ccc(N(C)C)cc2)nnc1-c1cccc(C)c1 | inconclusive: 29.1 µM [activator, single point] | 

SMILES | Potency | activity, positive = re-replication
O=c1c(O)c(-c2cccs2)oc2ccc(Cl)cc12 | inconclusive: 29.1 µM [activator, single point] | 
C=CCN1C(=O)C2(NNc3ccccc3O2)c2ccccc21 (stereo not drawn) | inconclusive: 18.4 µM [activator, single point] | 
CCC1(C)Cc2c(sc3nc(SC)n(Cc4ccccc4)c(=O)c23)CO1 (stereo not drawn) | inconclusive: 2.31 µM [activator, full curve, poor fit] | 
CN1CCC2(CC1)N=C(c1ccc(F)cc1)C(=S)N2C(=O)c1ccccc1 | inconclusive: 29.1 µM [activator, single point] | 
CC(=O)c1cccc(NC(=O)CN2C(=O)NC(C)(c3ccc4c(c3)OCCCO4)C2=O)c1 (stereo not drawn) |  | inactive: -0.847%
CCCCCCOC(=O)C[N+](C)(C)CCOC1CC2CCC1(C)C2(C)C (stereo not drawn) | inconclusive: 6.51 µM [activator, single point] | 
CN(CC(=O)Nc1ccc(Cl)cc1)CC(=O)Nc1cccc2ccccc12 | inconclusive: 20.6 µM [activator, partial curve, poor fit] | 
COc1ccc(-c2cc(C)no2)cc1S(=O)(=O)Nc1cccc(C)c1 | inconclusive: 29.1 µM [activator, single point] | 
O=C(Nc1ccncc1)c1cc2ccccc2cc1O | inconclusive: 29.1 µM [activator, single point] | 
N#Cc1c(NC(=S)NC(=O)c2ccccc2)sc2c1CCCC2 | inconclusive: 29.1 µM [activator, single point] | 
CCCc1cc2c(cc1NC(=O)c1ccc(Br)cc1)OCO2 | inconclusive: 29.1 µM [activator, single point] | 
COc1ccc(-c2c(-c3cc(OC)cc(OC)c3)n(C)c3ccc(-c4cnc(N)nc4)cc23)cc1 | inconclusive: 5.8 µM [activator, partial curve, poor fit] | 
C#CCN(C)Cc1ccccc1 | inactive and inconclusive: 259 nM [activator, full curve, poor fit] | 
O=C(Nc1cc(Cl)cc(Cl)c1)Nc1cnccn1 | inconclusive: 20.6 µM [activator, single point] | 
COc1cccc(/C=N/NC(=O)CNC(=O)c2cccs2)c1O |  | inactive: 0.251%
CC(=O)N1N=C(c2ccc3ccccc3c2)OC12CCCC2 | inconclusive: 29.1 µM [activator, single point] | 
COc1ccc(Cn2c(C3CC3)nc3ccc(NC(C)=O)cc3c2=O)cc1 |  | inactive: -3.81%
CCN(CC)CC#CC(O)(c1ccccc1)c1ccccc1 | inconclusive: 23.1 µM [activator, single point] | 
CN(CC(=O)Nc1ccccc1Br)C(=O)c1ccc(-c2ccc(Cl)cc2)o1 | inconclusive: 25.9 µM [activator, single point] | 
O=C(CN(c1ccc(Br)cc1)S(=O)(=O)c1ccc(Cl)c([N+](=O)[O-])c1)NCC1CCCO1 (stereo not drawn) | active: 16.4 µM | 
O=C(Cn1c(-c2cscn2)nc2ccccc21)Nc1ccc2ccccc2c1 | inconclusive: 29.1 µM [activator, single point] | 
COc1ccc(Cl)cc1NC(=O)NCC1CCN(C(=O)OC(C)(C)C)CC1 |  | inactive: 18.3%
COc1ccc(S(=O)(=O)n2oc(=O)cc2-c2ccccc2)cc1OC |  | inactive: 12.8%
